# According to PubChem BioAssay AID651820 (National Center for Advancing Translational Sciences (NCATS), 2012):
# In all, about 340,000 compounds went through this assay and about 12,000 (3.5%) were called active. Inconclusive means that the source gave no clear call. Such entries were picked first, then a sample of the others. The call rests on the fitted dose curve; in most records, active means well fitted inhibition curve with a large enough effect; inconclusive means small, poorly fitted or top-dose-only effect, or another doubt; inactive means no such curve, though single readings can be large or run the other way. No potency is given beside an inconclusive call; the fits are too rough.
# Test: qHTS Assay for Inhibitors of Hepatitis C Virus (HCV)
# Conditions: Huh7.5.1 HCVcc-Cre (HCVcc is cell-culture hepatitis C virus) infection, luciferase reporter, 44 h; activity change, negative = inhibition: at 41.8 µM (top of the series) unless noted
# Summary of the method: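 Antiviral activity was scored by luciferase reporter output from cells infected with HCVcc-Cre (~0.5 moi) in presence of compound, 44 h infection period, cells seeded 1,000/well 4 h prior.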
# On the % scale 0 is the no-effect control and ±100 the full control effect; potency means the concentration at half of the fitted maximal effect; tags describe the fitted curve by direction and shape.
SMILES,Potency,"activity change, negative = inhibition"
O=C(CSc1nnc(Cc2cccs2)n1-c1ccccc1)Nc1ccc2c(c1)OCCO2,"inconclusive [inhibitor, partial curve]",
N#CCCCCn1ccc(NC(=O)c2ccc(Cl)cc2O)n1,inactive,
CC(C#Cc1c([C@@H](C)Oc2ccccc2)nnn1Cc1ccccc1)Oc1ccccc1 (some centres not stated),inactive,
COc1cc(NC(=O)CNc2cccc(S(=O)(=O)N3CCCC3)c2)cc(OC)c1,"inconclusive [inhibitor, single point]",
OCC#CCSc1nnc(-c2ccc(Br)cc2)o1,"inconclusive [inhibitor, single point]",
CCCCNc1nc(=S)n(-c2ccccc2)c(C)c1C(C)=O,"inconclusive [inhibitor, single point]",
CCc1ccc(N2CC(O)(c3cccs3)[N+]3=C2SCCC3)cc1 (configuration not stated),"inconclusive [inhibitor, single point]",
C/C(N)=C(/C#N)C(=O)COC(=O)c1cc(-c2cccc3ccccc23)nc2ccccc12,"inconclusive [inhibitor, single point]",
CCCN(CCC)S(=O)(=O)c1cccc(C(=O)N=c2sccn2C)c1,"inconclusive [inhibitor, partial curve]",
CC(=O)NCCCNc1ccc([N+](=O)[O-])cc1,inactive,
S=C(NCCc1ccccc1)N1CCN(C23CC4CC(CC(C4)C2)C3)CC1,"inconclusive [inhibitor, single point]",
N#CC1=C2N=C(N)c3ccccc3N2C2=C(C(=O)CCC2)C1c1cccc(Cl)c1 (configuration not stated),"inconclusive [inhibitor, single point]",
COc1ccc(-c2cc(C(=O)N3CCN(c4ccccc4O)CC3)c3ccccc3n2)cc1,"inconclusive [inhibitor, single point]",
CC1(c2ccccc2)NC(=O)N(CC(=O)Nc2ccc(C(N)=O)cc2)C1=O (configuration not stated),inactive,
CCn1c(SCC(=O)Nc2ccc(OC)cc2)nc2nc3c(cc2c1=O)CCCC3,"inconclusive [inhibitor, partial curve]",
CC1CCCC(C)N1C(=O)Cn1cc(/C=C2/C(=O)Nc3ccccc32)c2ccccc21 (configuration not stated),"inconclusive [inhibitor, single point]",
O=C1C=Cc2ccccc2C1=O,,inactive: 9.91% [at 8.37 µM]
c1ccc(-c2nc(-c3ccc(-c4ccon4)s3)no2)cc1,inactive,
CC1CCCCN1C(=O)C1CCN(S(=O)(=O)c2ccc(-n3cnnn3)cc2)CC1 (configuration not stated),inactive,
CC1(C)CC(=O)C(Sc2nnc(-c3ccc(O)cc3)n2CC2CCCO2)C(=O)C1 (configuration not stated),inactive,
COc1ccc(Cl)cc1/C=C/c1ccc2cccc(O)c2n1,"inconclusive [inhibitor, partial curve]",
COc1ccc(C(CNC(=O)COc2ccc(-c3ccccc3)cc2)N2CCOCC2)cc1 (configuration not stated),"inconclusive [inhibitor, single point]",
Cc1ccc(S(=O)(=O)CCSC(=N)N)cc1,active: 10 µM,
c1ccc(C[C@H]2CN=C(Nc3ccccc3)N2CCC2CCCC2)cc1,"inconclusive [inhibitor, single point]",

SMILES,Potency,"activity change, negative = inhibition"
COc1ccccc1Nc1nnc(SCc2cc(=O)n3ccsc3n2)s1,"inconclusive [inhibitor, single point]",
COc1ccc(/C=N/NC(=O)c2cnccn2)c(OC)c1OC,inactive,
Cc1cccnc1NC(=O)NC(=O)c1ccc(C(C)(C)C)s1,inactive,
Cc1cccc(N(Cc2ccccc2)C(=O)CCl)c1,active: 3.98 µM,
CC(C)(C)NS(=O)(=O)c1ccc(NC(=O)CS(=O)(=O)Cc2ccccc2)cc1,inactive,
c1ccc(-c2ccc(-c3n(-c4ccccn4)c4ccccc4[n+]3-c3ccccn3)cc2)cc1,"inconclusive [inhibitor, partial curve]",
CC(=O)c1ccccc1NC(=O)COC(=O)/C=C/c1ccc(C)o1,"inconclusive [inhibitor, single point]",
O=C(CSc1ncn[nH]1)N1N=C2/C(=C/c3ccco3)CCCC2C1c1ccco1 (configuration not stated),"inconclusive [inhibitor, single point]",
Oc1ccc(O)c2c1C1(Cl)C(Cl)=C(Cl)C2(Cl)C1(Cl)Cl,"inconclusive [inhibitor, single point]",
O=C(Nc1ccccc1)c1nccn1Cc1ccc(F)cc1,"inconclusive [inhibitor, single point]",
COc1ccc(C(=O)Nc2cccc(S(=O)(=O)N(C)C)c2)cc1S(=O)(=O)N1CCOCC1,"inconclusive [inhibitor, single point]",
CC1CCN(c2cc(N3CCN(C(=O)c4ccc(F)c(F)c4)CC3)c([N+](=O)[O-])cc2F)CC1,"inconclusive [inhibitor, partial curve, poor fit]",
O=C(CCn1c2c(c3ccccc31)CCCC2)NNC(=O)c1cccc([N+](=O)[O-])c1,"inconclusive [inhibitor, partial curve]",
CC(=O)OC1CCC2(C)C3CCC4(C)C(OC(C)=O)CCC4C3C(C)C2(O)C1 (configuration not stated),inactive,
COc1cccc(-c2nc(N3CCCCC3C)c3ccccc3n2)c1O (configuration not stated),active: 8.91 µM,
Cc1ccc(S(=O)(=O)N2CCN(C(=O)c3ccc(OCc4c(C)noc4C)cc3)CC2)cc1,"inconclusive [inhibitor, partial curve]",
Cc1ccccc1NC(=O)Cc1nnc(SCC(=O)NC2CCCC2)n1C,inactive,
COCC(C)n1c(SCc2cc(C(=O)OC)c(C)o2)nc2ccccc2c1=O (configuration not stated),active: 11.2 µM,
O=C(Nc1ccnn1C1CCN(Cc2ccc(C#CCCO)cc2)CC1)c1cccc(F)c1,inactive,
Oc1csc(Cc2nc(-c3ccc4ccccc4c3)cs2)n1,"inconclusive [inhibitor, single point]",
CN1C(=O)C(C)(C)c2cc(S(=O)(=O)N3CCCC(C(=O)NCc4ccccc4Cl)C3)ccc21 (configuration not stated),"inconclusive [inhibitor, partial curve]",
Cc1cccc(NS(=O)(=O)c2coc(C(N)=O)c2)c1C,inactive,
Cc1cc(OCC(=O)NCc2ccncc2)c2c(C)c(C)c(=O)oc2c1,"inconclusive [inhibitor, single point]",
CC(C)(C)c1nc(SCC(=O)NC2CCCC2)c2ccccc2n1,inactive,

SMILES,Potency,"activity change, negative = inhibition"
C=CCOc1cccc(CNc2ccc3[nH]c(=O)[nH]c3c2)c1,active: 11.2 µM,
CCC(=O)c1cn(Cc2ccc(C#N)cc2)c2ccccc12,"inconclusive [inhibitor, single point]",
CCN(CC)c1ccc2c(c1)oc(=O)c1c(Cl)cc(=O)oc12,"inconclusive [inhibitor, single point]",
Cc1ccc(NC(=O)c2c(C)nn(-c3ccccc3)c2Cl)c(C)c1,"inconclusive [inhibitor, single point]",
CN(c1ccccc1)c1nc(N)c([N+](=O)[O-])c(Nc2ccccc2)n1,active: 5.62 µM,
COc1ccc(-c2cc(=NC(CC(C)C)C(=O)O)c3cc(C)ccc3o2)cc1 (configuration not stated),inactive,
O=C(CSc1nnc(-c2c[nH]c3ccccc23)o1)N1c2ccccc2CCc2ccccc21,active: 7.94 µM,
COc1cccc(N2CCN(C(=O)c3cn(Cc4ccccc4)nc3-c3cccnc3)CC2)c1,"inconclusive [inhibitor, partial curve]",
Cc1ccc(Oc2ccc(S(=O)(=O)N3CCOCC3)cc2C(N)=O)cc1C,"inconclusive [inhibitor, single point]",
CCOc1ccc2nc(NCCNC(=O)Nc3ccccc3)c(C#N)cc2c1,"inconclusive [inhibitor, partial curve]",
CCO[C@H]1OC(C(=O)NCc2ccccc2)=C[C@@H](c2ccc(C(F)(F)F)cc2)[C@@H]1CCCO,"inconclusive [inhibitor, single point]",
COC(=O)CCCN=C1SCCN1Cc1ccccc1,inactive,
COc1cc2c(cc1OC)CN(C(=O)/C=C/c1cccc([N+](=O)[O-])c1)CC2,inactive,
CCn1c(SCC(=O)N/N=C/C=C/c2ccccc2[N+](=O)[O-])nnc1-c1ccc(Cl)cc1,"inconclusive [inhibitor, partial curve]",
COc1ccc(CCNC(=O)c2cc(COc3c(C)cccc3C)on2)c(OC)c1,"inconclusive [inhibitor, single point]",
COC(=O)c1[nH]c2ccc(Br)cc2c1NC(=O)CN1CCN(C2CCCCC2)CC1,active: 11.2 µM,
Cn1cc(CN2CCC(C(=O)Nc3ccc(Oc4ccccc4F)cc3)CC2)cn1,active: 11.2 µM,
CCCCn1c(CCC(=O)O)ccc1-c1cccs1,inactive,
CC(C)C(=O)Nc1ccc(C(=O)N/N=C/c2cc(Br)cc(Br)c2O)cc1,"inconclusive [inhibitor, single point]",
CC(=O)c1ccc(NC(=O)CCC(=O)N2CC(C)Oc3ccc(C)cc32)cc1 (configuration not stated),active: 10 µM,
CCOC(=O)N1CCC(NC(=O)c2ccc(CS(=O)c3cccc(Cl)c3)o2)CC1 (configuration not stated),inactive,
COc1ccc(CNC(=O)C2CCCN(S(=O)(=O)c3ccc(Br)s3)C2)cc1 (configuration not stated),"inconclusive [inhibitor, partial curve]",
N/C(CS(=O)(=O)c1ccccc1)=N\OC(=O)c1ccc(F)cc1,inactive,
O=C(NN=Cc1ccccc1OC(F)F)c1ccc(NS(=O)(=O)c2cccs2)cc1,"inconclusive [inhibitor, partial curve]",
